Assay results published in publication PMC10668032.
Some of the results follow. At the low end of the ranking the order means little.

Target: SIX1-Q177R homeodomain (UniProt Q15475)
Experiment: universal protein binding microarray
Settings: Universal all-10-mer PBM (8x60K, AMADID 030236), 300 nM GST-tagged protein, Alexa Fluor 488 anti-GST; buffer, salt, pH and temperature not stated; high values mean tight binding; most listed sequences are background and not binding sites; double strand, one strand shown

| Sequence | binding signal |
| --- | --- |
| CCTCAATA | -0.0948 E-score |
| ACAATCCA | -0.0298 E-score |
| CCTTCATA | -0.00971 E-score |
| GTAATGCA | -0.0872 E-score |
| AGTAGCCC | -0.0534 E-score |
| TACCACCA | 0.0563 E-score |
| ACATGAAA | -0.15 E-score |
| GATAACTA | 0.113 E-score |
| CAAGACTA | -0.202 E-score |
| CTGTATTA | -0.258 E-score |
| AACTACGG | -0.00575 E-score |
| AGATCAAA | -0.184 E-score |
| ACCATTAC | 0.162 E-score |
| CTTGACCC | 0.201 E-score |
| AACGCTCC | -0.165 E-score |
| ACCACAAA | -0.106 E-score |
| CATGTTAC | -0.0595 E-score |
| GGTGACCA | -0.0869 E-score |
| CTAGGTCC | -0.0538 E-score |
| TGATGAAA | -0.151 E-score |
| AATCTCTC | -0.274 E-score |
| ACAGTATC | 0.0486 E-score |
| ATTTAAGG | -0.202 E-score |
| TCCAAAAA | -0.208 E-score |
| CCCGCGCG | 0.0351 E-score |

| Sequence | binding signal |
| --- | --- |
| TAAGTAGA | -0.124 E-score |
| AGATAACG | -0.0978 E-score |
| CTTGAACC | 0.00499 E-score |
| CGCAACGA | -0.0869 E-score |
| ACTTGGTC | 0.0884 E-score |
| CCCAAGCC | 0.0691 E-score |
| AATCAAGG | -0.175 E-score |
| ACGCAAAT | 0.0919 E-score |
| CCTATGCA | -0.0848 E-score |
| ACACCACC | 0.481 E-score |
| CTCGACCA | -0.0276 E-score |
| ATGGCCAT | -0.243 E-score |
| GAAAGATC | -0.244 E-score |
| AAGGCGAC | 0.0508 E-score |
| TAACCGTA | 0.00244 E-score |
| GGGAGGTA | 0.0636 E-score |
| AAGGCCAT | -0.0761 E-score |
| CTTTTATC | -0.109 E-score |
| ATACTGGG | 0.0822 E-score |
| GCGGTCCA | -0.205 E-score |
| CCCCCTCC | 0.182 E-score |
| CATGCGAC | -0.0521 E-score |
| AAAAATCC | -0.154 E-score |
| AAAGCACT | 0.0751 E-score |
| CTGCGGGA | -0.00809 E-score |

| Sequence | binding signal |
| --- | --- |
| AGCACTTC | 0.00248 E-score |
| GGAGGTTA | 0.0855 E-score |
| TGAGCACA | 0.0414 E-score |
| AGAGGGCT | -0.0886 E-score |
| AAGAATGT | -0.34 E-score |
| CATCCTGG | -0.247 E-score |
| AAGCGGCG | -0.0674 E-score |
| CAAAGGGA | 0.0185 E-score |
| AAGAAAGT | -0.215 E-score |
| ACAAGATG | 0.089 E-score |
| CCGAGCGG | 0.0805 E-score |
| ACACGCCA | 0.381 E-score |
| CGCATCGC | -0.284 E-score |
| CCGGTATA | 0.183 E-score |
| GCTGATGA | -0.175 E-score |
| AGGCCCCA | -0.29 E-score |
| ATGTCGTG | 0.222 E-score |
| CTGAAAAA | -0.156 E-score |
| ACGTTGTC | 0.0111 E-score |
| GCAAAACA | -0.0259 E-score |
| CATGAGGG | 0.123 E-score |
| CTCAATTA | -0.0285 E-score |
| ATCAGACA | 0.204 E-score |
| GAGGGCCA | -0.195 E-score |
| TGAGGTAA | -0.235 E-score |

| Sequence | binding signal |
| --- | --- |
| ATGCAATG | -0.0681 E-score |
| TAACGCGA | -0.0997 E-score |
| GGAAACCA | -0.0986 E-score |
| CTTGGAAA | -0.123 E-score |
| CGATTTAA | -0.0559 E-score |
| ACATGCAA | -0.0427 E-score |
| CCTTAGCG | -0.0239 E-score |
| CCAATCCA | 0.0725 E-score |
| AACAACAC | 0.414 E-score |
| AGAAAAGA | -0.119 E-score |
| CTACCCAG | 0.0549 E-score |
| CAGCATCC | -0.221 E-score |
| AGGACAGC | -0.158 E-score |
| CTAAGCCC | -0.114 E-score |
| ATCAGACG | -0.187 E-score |
| ACGCCCCA | 0.114 E-score |
| CGCGGTTA | 0.0939 E-score |
| AGAATTAC | 0.0518 E-score |
| CCCCGATC | 0.0878 E-score |
| ACCCATAA | 0.0912 E-score |
| AGGTCCTG | -0.129 E-score |
| GTTGCATA | 0.132 E-score |
| CAAATGCG | -0.0443 E-score |
| GCAGCAAA | -0.294 E-score |
| ACCCTTAC | 0.158 E-score |

| Sequence | binding signal |
| --- | --- |
| ACAAGGCA | -0.149 E-score |
| CATGCATC | -0.212 E-score |
| CTGGCTTC | -0.115 E-score |
| AACCACGT | 0.0198 E-score |
| AGGTTGCC | -0.267 E-score |
| AAATCGAA | -0.277 E-score |
| CAGTGTAA | 0.42 E-score |
| ACCTATCA | 0.0581 E-score |
| ACTAAAAC | 0.168 E-score |
| ACTATTCC | -0.0422 E-score |
| ATATAATG | -0.0599 E-score |
| ACGTGAAC | -0.15 E-score |
| GCAATCTA | -0.199 E-score |
| CACCATCG | 0.13 E-score |
| AGGAGACC | 0.0681 E-score |
| ATACGAAA | 0.0297 E-score |
| AACCCCGA | 0.232 E-score |
| CCGCGTCG | 0.0929 E-score |
| GCCGGTCA | -0.156 E-score |
| ACAGTAGA | -0.113 E-score |
| CTAACTGA | -0.108 E-score |
| AACATCCA | 0.0307 E-score |
| CAACGCGC | -0.122 E-score |
| GTCTACAA | -0.229 E-score |
| GATATCGC | -0.0885 E-score |

| Sequence | binding signal |
| --- | --- |
| CTGCTAGA | -0.176 E-score |
| AGCAACTC | -0.0167 E-score |
| GACTATCA | -0.145 E-score |
| CGATGGAG | 0.107 E-score |
| GGTGGTGA | -0.017 E-score |
| GAGCCGGC | -0.025 E-score |
| AACCGCAT | -0.223 E-score |
| AAAGCCCG | -0.198 E-score |
| ACACAGAA | 0.0982 E-score |
| CTGCGGTC | -0.152 E-score |
| GAGTCCCC | 0.0416 E-score |
| AGGTACTA | 0.197 E-score |
| ATTGGATG | -0.0987 E-score |
| GTATGTGA | -0.0199 E-score |
| AGGTAATC | -0.202 E-score |
| CAGTGCGA | -0.214 E-score |
| GATTTGCA | -0.00948 E-score |
| TAGTAAGA | -0.217 E-score |
| CCATGGCC | -0.143 E-score |
| ACCTAGCC | -0.118 E-score |
| TACGTCTA | -0.263 E-score |
| CGAATCTA | -0.207 E-score |
| AGCGCTTG | -0.165 E-score |
| ACACCCCG | 0.466 E-score |
| ACAGTACA | 0.203 E-score |

| Sequence | binding signal |
| --- | --- |
| ACCTCCGC | 0.0929 E-score |
| AAACAGGT | 0.00705 E-score |
| ATAGACGC | -0.00113 E-score |
| GGCGTCCA | 0.0166 E-score |
| AATTATAG | -0.0975 E-score |
| TCTTCCCA | -0.233 E-score |
| AGGCTTCC | -0.217 E-score |
| AGTTGAGC | -0.111 E-score |
| ATTAAGGA | 0.0168 E-score |
| CTGTTTCA | -0.259 E-score |
| CCGCCCTC | -0.173 E-score |
| ACCTCAAA | 0.0908 E-score |
| AAGCAGTC | -0.0446 E-score |
| GTCACGCA | -0.0101 E-score |
| AATCCTAA | -0.243 E-score |
| CCAGCTAA | -0.0622 E-score |
| AGCGAAAA | -0.0679 E-score |
| ATGCGAAG | -0.186 E-score |
| AGGTTTTC | -0.176 E-score |
| TGTATTAA | 0.137 E-score |
| ATCTGATG | -0.171 E-score |
| AGTACTAG | -0.0972 E-score |
